Article PMC11783601, “Analogue-Sensitive Inhibition of Histone Demethylases Uncovers Member-Specific Function in Ribosomal Protein Synthesis” (Journal of the American Chemical Society, 2025)
Where “and” joins values, the source holds several entries; their conditions need not be identical. Equal values may be shown once.

Target: T1, KDM4A F185A (asKDM4A) in HEK293T cells (Homo sapiens, UniProt O75164, F185A)
T1 construct: we generated the F185A mutation in full-length KDM4A carrying all of the functional domains; host or cells: HEK293T
T1 sequence (O75164 1-1064 F185A): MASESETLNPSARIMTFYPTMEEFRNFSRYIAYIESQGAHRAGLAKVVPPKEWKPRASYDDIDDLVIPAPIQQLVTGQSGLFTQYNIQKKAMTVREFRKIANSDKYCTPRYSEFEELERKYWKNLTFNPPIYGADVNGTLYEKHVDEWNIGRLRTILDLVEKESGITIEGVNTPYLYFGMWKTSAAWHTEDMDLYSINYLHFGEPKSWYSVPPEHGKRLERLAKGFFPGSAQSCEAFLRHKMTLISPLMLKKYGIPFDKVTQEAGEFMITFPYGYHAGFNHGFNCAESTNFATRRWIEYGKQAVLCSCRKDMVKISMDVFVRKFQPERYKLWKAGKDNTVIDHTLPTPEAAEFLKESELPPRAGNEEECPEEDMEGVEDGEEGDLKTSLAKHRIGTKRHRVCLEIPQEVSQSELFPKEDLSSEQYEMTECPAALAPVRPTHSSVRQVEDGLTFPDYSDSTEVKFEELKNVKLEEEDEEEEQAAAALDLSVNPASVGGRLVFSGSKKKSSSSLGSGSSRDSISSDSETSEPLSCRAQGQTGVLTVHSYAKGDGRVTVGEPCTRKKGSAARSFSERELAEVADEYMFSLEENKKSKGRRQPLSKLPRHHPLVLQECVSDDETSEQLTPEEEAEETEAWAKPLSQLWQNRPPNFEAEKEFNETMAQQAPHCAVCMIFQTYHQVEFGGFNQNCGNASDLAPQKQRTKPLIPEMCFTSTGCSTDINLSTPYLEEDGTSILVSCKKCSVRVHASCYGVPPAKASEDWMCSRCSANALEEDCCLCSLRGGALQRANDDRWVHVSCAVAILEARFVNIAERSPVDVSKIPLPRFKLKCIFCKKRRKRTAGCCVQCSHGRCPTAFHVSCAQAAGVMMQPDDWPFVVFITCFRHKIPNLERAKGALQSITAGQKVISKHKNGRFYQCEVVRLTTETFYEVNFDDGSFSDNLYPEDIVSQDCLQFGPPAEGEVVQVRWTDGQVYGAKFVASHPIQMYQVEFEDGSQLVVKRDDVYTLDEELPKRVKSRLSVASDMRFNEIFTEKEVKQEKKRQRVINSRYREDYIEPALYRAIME
Test: Histone extraction, digestion and tandem mass spectrometry (relative abundance of histone modifications)
Format: cell-based
Protocol: HEK293T cells were transiently transfected with asKDM4A and treated with varying concentrations of 6A or 6B. […] To further confirm the activity of the enzyme–inhibitor pair, we performed tandem mass spectrometry of tryptic histones isolated from HEK293T cells expressing asKDM4A in the presence or absence of 100 μM 6A. […]
22. Histone extraction, digestion and tandem mass spectrometry
HEK 293-T cells (ATCC CRL-1573) were plated into 6-well plates (Corning) in DMEM (Corning) supplemented with 10% FBS (Corning) and 1X Antibiotic/Antimycin
(Penicillin/Streptomycin/Fungiozone) (Cytiva HyClone) in an incubator held at 37 °C with 5%
CO2. At 75% confluency, cells were transfected with 2.5 µg KDM4A F185A or Empty Vector with 5µg Thermo Turbofect (FERR0531). After 4 hours, the media was washed and 200 µM of 6A or equivalent volume of DMSO was added and left to incubate at 37 °C for 24 hours. Cells were then washed with 1X PBS (Corning) followed by trypsinization (Gibco TrypLE™ Express Enzyme). Collected cells were centrifuged at 3000xg for 3 minutes, followed by washing with 1X PBS and centrifuged for an additional 3000xg for 3 minutes. Histone proteins were extracted from the pellet as described by25 to ensure good-quality identification and quantification of single histone marks. Briefly, cell pellets were dissolved in 100 µL of cold 0.2 M H2SO4 and incubated for 2 hours rotating in a cold room (4 °C). Aliquots were then centrifuged at 3400xg for 5 minutes […]
at 4 °C and the supernatant was added to a fresh tube. 100% cold TCA was then added to a final volume of 33% volume/volume TCA/supernatant and left to incubate for 1 hour in a cold room (4 °C). Samples were then centrifuged at 3400xg for 5 min at 4 °C and the supernatant was discarded. The precipitate was then washed with cold acetone/0.1% HCl and centrifuged at 3400xg for 5 minutes at 4 °C. The supernatant was discarded, and the precipitate was washed with cold acetone and centrifuged at 3400xg for 5 minutes at 4 °C. The supernatant was discarded, and the pellet was dried using a vacuum centrifuge.
The pellet was dissolved in 50 mM ammonium bicarbonate, pH 8.0, and histones were subjected to derivatization using 5 µL of propionic anhydride and 14 µL of ammonium hydroxide (all Sigma Aldrich) to balance the pH at 8.0. The mixture was incubated for 15 min and the procedure was repeated. Histones were then digested with 1 µg of sequencing grade trypsin (Promega) diluted in 50mM ammonium bicarbonate (1:20, enzyme:sample) overnight at room temperature.
Derivatization reaction was repeated to derivatize peptide N-termini. The samples were dried in a […]
Sample desalting: Prior to mass spectrometry analysis, samples were desalted using a 96-well plate filter (Orochem) packed with 1 mg of Oasis HLB C-18 resin (Waters). Briefly, the samples were resuspended in 100 µl of 0.1% TFA and loaded onto the HLB resin, which was previously equilibrated using 100 µl of the same buffer. After washing with 100 µl of 0.1% TFA, the samples were eluted with a buffer containing 70 µl of 60% acetonitrile and 0.1% TFA and then dried in a […]
LC-MS/MS Acquisition and Analysis: Samples were resuspended in 10 µl of 0.1% TFA and loaded onto a Dionex RSLC […] (Thermo Scientific), coupled online with an Orbitrap Fusion Lumos (Thermo Scientific). Chromatographic separation was performed with a two-column system, consisting of a C-18 trap cartridge (300 µm ID, 5 mm length) and a picofrit analytical column (75 µm ID, 25 cm length) packed in-house with reversed-phase Repro-Sil Pur C18-AQ 3 µm resin. Peptides were separated using a 30 min gradient from 1-30% buffer B (buffer A: 0.1% formic acid, buffer B: 80% acetonitrile + 0.1% formic acid) at a flow rate of 300 nl/min.
The mass spectrometer was set to acquire spectra in a data-independent acquisition (DIA) mode.

[1] = peptide KSAPSTGGVKKPHR(H33_27_40), NOL-treated samples, replicates _1 and _2, listed as NOL
[2] = peptide KSTGGKAPR(H3_9_17), NOL-treated samples, replicates _1 and _2, listed as NOL
[3] = peptide KVLR(H4_20_23), NOL sample, replicates _1 and _2, listed as NOL
[4] = peptide SGRGKQGGKAR(H2A1_1_11), NOL sample, replicates _1 and _2, listed as NOL
[5] = peptide TKQTAR(H3_3_8), NOL-treated samples, replicates _1 and _2, listed as NOL
[6] = peptide YQKSTELLIR(H3_54_63), NOL-treated samples, replicates _1 and _2
[7] = unmod(H1_1_35), NOL sample, replicates _1 and _2
[8] = unmod(H1_54_81), NOL sample, replicates _1 and _2
[9] = unmod(H2A_1_88) variant share, F185A cells treated with NOL, replicates _1, _2, listed as NOL

CC(C)CC(NC(=O)C(=O)O)C(=O)O (stereo not drawn) [compound 6, N-oxalyl leucine]
Ratio H33_27_40 K27me3S28ph (peptide KSAPSTGGVKKPHR(H33_27_40), NOL-treated samples, replicates _1 and _2): 0 | Ratio H33_27_40 K27me1 [1]: 0.03588 and 0.02549 | Ratio H33_27_40 K27me1K36me1 [1]: 0.04799 and 0.03537 | Ratio H33_27_40 K27me1K36me2 [1]: 0.1098 and 0.111 | Ratio H33_27_40 K27me1K36me3 [1]: 0.02104 and 0.03377 | Ratio H33_27_40 K27me2 [1]: 0.08498 and 0.06535 | Ratio H33_27_40 K27me2K36me1 [1]: 0.1416 and 0.09735 | Ratio H33_27_40 K27me2K36me2 [1]: 0.2427 and 0.3114 | Ratio H33_27_40 K27me3 [1]: 0.05703 and 0.02721 | Ratio H33_27_40 K27me3K36me1 [1]: 0.02034 and 0.008575 | Ratio H33_27_40 K27me3K36me2 [1]: 0.04135 and 0.06259 | Ratio H33_27_40 K36me1 [1]: 0.02463 and 0.01515 | Ratio H33_27_40 K36me2 [1]: 0.05863 and 0.05349 | Ratio H33_27_40 K36me3 [1]: 0.01575 and 0.03587 | Ratio H33_27_40 unmod [1]: 0.0968 and 0.08026 | Ratio H3_9_17 K9ac [2]: 0.002877 and 0.002982 | Ratio H3_9_17 K9acS10phK14ac [2]: 4e-6 and 6e-6 | Ratio H3_9_17 K9me1K14ac [2]: 0.08639 and 0.06409 | Ratio H3_9_17 K9me2 [2]: 0.221 and 0.1719 | Ratio H3_9_17 K9me2K14ac [2]: 0.1958 and 0.3126 | Ratio H3_9_17 K9me2S10phK14ac [2]: 0.001247 and 0.000958 | Ratio H3_9_17 K9me3 [2]: 0.1049 and 0.1007 | Ratio H3_9_17 K9me3K14ac [2]: 0.04906 and 0.08096 | Ratio H3_9_17 K9me3S10ph [2]: 0.001779 and 0.002103 | Ratio H3_9_17 K14ac [2]: 0.08363 and 0.1154 | Ratio H3_9_17 unmod [2]: 0.0977 and 0.1183 | Ratio H4_20_23 K20me1 [3]: 0.4844 and 0.3612 | Ratio H4_20_23 K20me2 [3]: 0.1012 and 0.2416 | Ratio H4_20_23 K20me3 [3]: 0.03481 and 0.03641 | Ratio H4_20_23 unmod [3]: 0.3766 and 0.3482 | Ratio H4_40_45 unmod (peptide RGGVKR(H4_40_45), NOL sample, replicates _1 and _2, listed as NOL): 1 and 0.9996 | Ratio H2A1_1_11 K5ac [4]: 0.134 and 0.1299 | Ratio H2A1_1_11 unmod [4]: 0.6208 and 0.8483 | Ratio H3_3_8 K4me1 [5]: 0.1039 and 0.09374 | Ratio H3_3_8 unmod [5]: 0.8936 and 0.892 | Ratio H3_54_63 K56ac (peptide YQKSTELLIR(H3_54_63), NOL sample, replicates _1 and _2): 0 | Ratio H3_54_63 K56me2 [6]: 0 | Ratio H3_54_63 K56me3 [6]: 0 | Ratio H3_41_49 unmod (peptide YRPGTVALR(H3_41_49), NOL-treated samples, replicates _1 and _2, listed as NOL): 1 and 0.9983 | Ratio H1_1_35 H11.SETAPVAQAASTATEKPAAAKKTKKPAKAAAPR [7]: 0 | Ratio H1_1_35 H13.SETAPAAPAAPAPVEKTPVKKKAKKTGAAAGKR [7]: 0 | Ratio H1_1_35 H15.SETAPAETAAPAPVEKSPAKKKTTKKAGAAKR [7]: 0 | Ratio H1_54_81 H11.SGVSLAALKKSLAAAGYDVEKNNSR [8]: 0 | Ratio H1_54_81 H15.GGVSLPALKKALAAGGYDVEKNNSR [8]: 0 | Ratio H1_54_81 H1v234.SGVSLAALKKALAAAGYDVEKNNSR (unmod(H1_54_81), NOL sample, replicates _1 and _2, listed as NOL): 1 and 0.6593 | Ratio H2A_1_88 H2A14s.HLQLAIR [9]: 0.8513 and 0.9512 | Ratio H2A_1_88 H2AX.GKTGGKAR [9]: 0.01888 and 0.009712 | Ratio H2B_1_29 1B.PEPSKSAPAPKKGSKKAISKAQKKDGKKR (unmod(H2B_1_29), F185A cells treated with NOL, replicates _1, _2): 0
